The whole screen tested about 150,000 compounds, of which about 540 (0.36%) showed an effect of 50% or more. Some of the results follow.
tested on: Plasmodium falciparum; assay: Primary screen in NF54 nanoGlo assay, in single point, at 2uM, 72h; a lower Z score goes with more inhibition; assay type: functional, Erythrocyte; settings: timepoint 72 hour

Row | Compound | % Inhibition [%] | Z score
1 | Cc1ccc([C@H]2CN(C(=O)C3CCCCC3)C[C@@H]2N(C)C)cc1 | 14 | -1.79
2 | C[C@@H](c1nccs1)n1ccnc1-c1cc(-c2ccccc2)no1 | -13 | 1.21
3 | O=C(NOCc1cccnc1)N1CCC[C@@H]1Cn1ccnc1 | -5 | 0.71
4 | O=C(CN1C(=O)NC2(CCCC2)C1=O)c1ccc2c(c1)OCCO2 | 35 | -3.92
5 | C=CCOC[C@@H](O)CN(CCOC)Cc1cccn1C | -5 | 0.71
6 | CC(C)(C)c1ccc(-n2ncc3c2CCC[C@@H]3NC(=O)Cc2cnc3ncnn3c2)cc1 | -14 | 2.42
7 | C[C@@H](c1nc2ccccc2c(=O)[nH]1)N(C)CCN(C)C1CCCCC1 | -2 | 0.26
8 | CS(=O)(=O)CCn1ccnc1-c1ccccc1-c1ccco1 | -19 | 2.85
9 | COc1cccc(NC(=O)N2CC(O)CC2C2CCCCC2)c1 (centres undefined) | 34 | -5.28
10 | CCCCNC(=O)C(C)N1CCN(C)C(C(C)(C)C)C1 (centres undefined) | -9 | 1.68
11 | Cc1sc(CCNC(=O)[C@@H]2CCC(=O)N2)nc1-c1ccccc1 | -10 | 1.12
12 | CCC1Oc2cc(C(C)NC(=O)C3=Cc4ccccc4OC3)ccc2NC1=O (centres undefined) | -15 | 1.65
13 | CCNC(=O)c1ccc(N2CC(O)CC2CO)nc1 (centres undefined) | -2 | 0.33
14 | CCc1cc(O)nc(CN(C)Cc2csc([C@H](C)OC)n2)n1 | -10 | 1.85
15 | c1ccc2oc(CN3CCC(Cn4ccnc4)CC3)cc2c1 | -16 | 1.58
16 | CC(C)n1cc(-c2ncnn2-c2ccc3c(c2)OCCO3)cn1 | -8 | 0.99
17 | O=S(=O)(N1CCOCC1)N1CCC[C@H]1c1nc2ccccc2s1 | -5 | 0.75
18 | COC(=O)c1cccc2c1CCN(C(=O)c1nc(C)oc1C)C2 | -5 | 0.91
19 | O=C(N[C@@H](CO)c1cccc(Cl)c1F)c1occ2c1CCOC2 | -2 | 0.27
20 | CCOc1ccc(CN2C[C@H](OC)[C@@H](O)C2)cn1 | -16 | 1.44
21 | CCn1nc(CN2CCS(=O)(=O)c3ccccc3C2)c2ccccc21 | 0 | 0.05
22 | CCc1nnc2n1C[C@@H](NCc1cnc(-c3ccccc3)nc1)CC2 | 5 | -1

Row | Compound | % Inhibition [%] | Z score
23 | CCc1nnc2n1C[C@@H](NCc1ccc(N3CCOCC3)cc1)CC2 | -2 | 0.45
24 | Cc1ccccc1Cc1nnc2n1CCCC2 | -8 | 1.32
25 | Cc1nc2ccnn2cc1C(=O)N[C@H]1CCC(=O)N(C)C1=O | -8 | 1.59
26 | O=C(CCc1ccc(O)cc1)N1C[C@@H]2CC[C@H]1CN(Cc1ccccn1)C2 | 7 | -1.03
27 | c1ccc(NC2=NNC(Nc3ccccc3)=NN2)cc1 | 8 | -1.03
28 | O=C(N1CCn2nncc2C1)[C@]1(O)CCc2cc(Br)ccc2C1 | 4 | -0.62
29 | CCOCCCNC(=O)CN1C(=O)CCn2nc(-c3cccc(Cl)c3)cc21 | 2 | -0.24
30 | CCN(CC)C(=O)N1CCC[C@H](Oc2nc(C(C)C)nc3c2CCOCC3)C1 | -6 | 1.01
31 | CC(C)(C)NC(=O)COC(=O)c1cccc(F)c1 | -7 | 1.06
32 | Cc1noc(C)c1C(=O)Nc1sc(C)c(-c2ccccc2)c1C(N)=O | -13 | 1.69
33 | CN(CCc1noc(COc2ccccc2F)n1)S(=O)(=O)c1cccc(C#N)c1 | -12 | 1.16
34 | Cc1cc(Cl)ccc1CNCc1cccc(-c2nnc[nH]2)c1 | -4 | 0.78
35 | Clc1ccc(Oc2nc(-c3ccccc3)c3cc(Br)ccc3n2)cc1 | -4 | 0.72
36 | COCc1cc(N[C@@H]2COCC[C@@H]2OCCO)ncn1 | -21 | 1.93
37 | OC[C@@H]1CCCN1Cc1cc(O)c2cccc(Cl)c2n1 | 0 | -0.09
38 | C[n+]1cn(CC(=O)Nc2ccccc2)c2ccccc21 | -1 | 0.18
39 | CC1CCCC(OCC(=O)N2CCC3(C2)OCCO3)C1 (centres undefined) | -8 | 0.97
40 | c1ccc2c(c1)C[C@H](Cc1ccc(NC3CCCC3)nn1)CO2 | 5 | -0.67
41 | CN(C[C@H](O)C(F)(F)F)S(=O)(=O)c1ccccc1 | -3 | 0.28
42 | CC(C)Cc1cc(CN2CCCn3nc(C#N)cc3C2)no1 | -9 | 1.3
43 | CN(C)CCn1ccnc1C1CCN(C(=O)c2cnn3ccccc23)CC1 | -14 | 2.4
44 | O=C(Nc1ccncc1F)N[C@H]1CCCc2occc21 | -8 | 1.43

Row | Compound | % Inhibition [%] | Z score
45 | Cc1nc([C@@H]2CCCCN2Cc2cn(C)nc2C2CC2)no1 | -1 | 0.13
46 | CN(C(=O)Cn1c(=O)n(-c2cc(F)cc(F)c2)c(=O)c2sccc21)c1ccccc1 | 36 | -4.06
47 | COc1ccc(C(OC(=O)c2cscn2)C(C)n2cccn2)cc1 (centres undefined) | -6 | 0.81
48 | Cc1c(Cl)cccc1S(=O)(=O)n1cc2c(=O)n(C(C)C)c(=O)n(C(C)C)c2n1 | 2 | -0.21
49 | Cc1cc(C)cc(N2C[C@@H](c3nnc(NC(=O)c4ccccc4F)s3)CC2=O)c1 | -1 | 0.11
50 | CC(C)(C)n1cc(CNc2nnc(C3CC3)o2)nn1 | -9 | 1.51
51 | O=C(O)c1nc2ccccn2c1-c1ccc(F)c2cccnc12 | -21 | 1.86
52 | COCCc1nc(-c2cc3ncccn3n2)n(Cc2ccccc2C)n1 | 5 | -0.89
53 | COCCOCC(=O)N1CC[C@H](OCc2ccccc2)C1 | -18 | 2.04
54 | COc1cc(CN2C(=O)N[C@]3(CC(C)(C)OC3(C)C)C2=O)ccn1 | 4 | -0.76
55 | NC(=O)C[C@H](NCC(F)(F)F)C1CCCCC1 | -2 | 0.28
56 | CCCCN1CCn2nc(CCC(=O)N3CCC(O)CC3)cc2C1 | 6 | -0.9
57 | CN(C[C@H]1COCCO1)C(=O)c1ncccc1O | 1 | -0.16
58 | Cc1cc2nc3n(c(=O)c2n1CC(=O)Nc1ccc2c(c1)OCCO2)CCCC3 | 3 | -0.35
59 | COC(=O)[C@]1(C)CN(C(=O)NCc2ccc(O)c(OC)c2)C[C@H]1C | -7 | 1.27
60 | Cn1cc(C(O)CC2CCCN2CC(=O)Nc2nccs2)cn1 (centres undefined) | -1 | 0.21
61 | Cc1csc(CNC(=O)Nc2ccccn2)n1 | -3 | 0.59
62 | Cc1cc(S(=O)(=O)N2CCC[C@H]2c2ncccn2)c(C)o1 | 3 | -0.45
63 | CCc1c(C)nn(CCNc2nnc(C3CC3)o2)c1C | -1 | 0.18
64 | COc1cccc(N2C(=O)c3cc(Br)ccc3N[C@@H]2c2cc(Br)ccc2OCc2ccccc2)c1 | 26 | -2.98
65 | CC(=O)OCC(=O)Nc1ccc(S(N)(=O)=O)cc1 | -10 | 1.85
66 | Cc1noc(C)c1CS(=O)(=O)CCn1cnc2ccccc2c1=O | -9 | 0.9

Row | Compound | % Inhibition [%] | Z score
67 | Cn1c(=O)c2c(nc(OC(c3ccccc3)c3ccccc3)n2C)n(C)c1=O | -8 | 1.09
68 | CCCC(C#N)(CCC)NC(=O)Cc1ccccc1OC | 3 | -0.4
69 | Cc1cc(S(N)(=O)=O)c(C)cc1NCc1nc(C)c(C)s1 | -12 | 2.37
70 | COC(=O)[C@H]1Cc2[nH]ncc2N(C(=O)COc2ccc(OC)cc2)C1 | 1 | -0.18
71 | Cc1noc(C)c1S(=O)(=O)NC[C@@H](c1ccsc1)n1cccn1 | -5 | 1.01
72 | CN(C)c1ccc(O[C@H]2CCN(C(=O)c3ccc(C#N)cc3)C2)nn1 | -11 | 1.25
73 | NC(=O)c1cc(Br)c(N)c(Br)c1 | 8 | -1.02
74 | C#CC(C)(C)OCC(O)CN1CC(C)OC(C)C1 (centres undefined) | -20 | 1.81
75 | COc1cccc(-c2nnnn2[C@H]2CO[C@H]3[C@@H]2OC[C@@H]3NC(=O)c2ccc(C(F)(F)F)cc2)c1 | -10 | 1.54
76 | CC(C)c1nn(C)cc1-c1noc(C(=O)Nc2ccccc2)n1 | 0 | -0.06
77 | CCCNC(=O)N1CCC[C@](c2nnnn2C2CCCC2)(N(C)C)C1 | -13 | 1.76
78 | CCN1CCN(CC(=O)N2CC(COC)(c3ccccc3)C2)CC1 | -3 | 0.55
79 | CCN1C[C@@H](C(=O)N2CCN(c3ncccn3)CC2)CCC1=O | 2 | -0.21
80 | NC(=O)c1cnc(NC(=O)[C@@H]2CCCO2)s1 | -3 | 0.66
81 | O=C(CCCc1cn[nH]c1)N1CCC(Cn2ccnc2)CC1 | -2 | 0.27
82 | O=C(Cc1nnc(-c2ccc(Br)cc2)o1)N1CCN(c2ccccc2)CC1 | -5 | 0.73
83 | COC(=O)[C@@H]1C[C@@H](O)CN1c1ccc(C(F)(F)F)cn1 | 3 | -0.39
84 | Cc1ncc(C(=O)N(C)CCc2ccc(Cl)cc2)c(C2CC2)n1 | -1 | 0.18
85 | Cc1csc(N2CCC(C(=O)N3CCCC(C)C3CN)CC2)n1 (centres undefined) | -3 | 0.37
86 | COc1ccc(OC)c(S(=O)(=O)N2CCC[C@H]2C(=O)N2CCc3ccccc3C2)c1 | -8 | 1.29
87 | COc1ccc(S(=O)(=O)N[C@H]2CCCc3cn(CC(=O)N(C)C)nc32)cc1 | 7 | -0.93

Source: ChEMBL document CHEMBL4888484, “Replenishing the malaria drug discovery pipeline: Screening and hit evaluation of the MMV Hit Generation Library 1 (HGL1) against asexual blood stage Plasmodium falciparum ,using a nano luciferase reporter read-out” (2022)
